# Laboratory results as given in publication PMC6919601, “Identification of Plasmodium dipeptidyl aminopeptidase allosteric inhibitors by high throughput screening” (PLoS ONE, 2019).
# Screen size: about 110,000 compounds; about 230 (0.21%) showed an effect of 50% or more. The list shows a part of the results.
# Molecular target: DPAP1 (Plasmodium falciparum, UniProt Q8IIJ9)
# Assay: primary screen, percent inhibition; read by cleavage of a fluorogenic dipeptide substrate; higher = more effect of the substance
# Set-up: species or system P. falciparum D10 trophozoite lysates; single well
# 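Further: 30 min substrate incubation versus DMSO and 10 µM JCP410 controls.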
# DPAP1, sequence (Q8IIJ9 whole entry, looked up): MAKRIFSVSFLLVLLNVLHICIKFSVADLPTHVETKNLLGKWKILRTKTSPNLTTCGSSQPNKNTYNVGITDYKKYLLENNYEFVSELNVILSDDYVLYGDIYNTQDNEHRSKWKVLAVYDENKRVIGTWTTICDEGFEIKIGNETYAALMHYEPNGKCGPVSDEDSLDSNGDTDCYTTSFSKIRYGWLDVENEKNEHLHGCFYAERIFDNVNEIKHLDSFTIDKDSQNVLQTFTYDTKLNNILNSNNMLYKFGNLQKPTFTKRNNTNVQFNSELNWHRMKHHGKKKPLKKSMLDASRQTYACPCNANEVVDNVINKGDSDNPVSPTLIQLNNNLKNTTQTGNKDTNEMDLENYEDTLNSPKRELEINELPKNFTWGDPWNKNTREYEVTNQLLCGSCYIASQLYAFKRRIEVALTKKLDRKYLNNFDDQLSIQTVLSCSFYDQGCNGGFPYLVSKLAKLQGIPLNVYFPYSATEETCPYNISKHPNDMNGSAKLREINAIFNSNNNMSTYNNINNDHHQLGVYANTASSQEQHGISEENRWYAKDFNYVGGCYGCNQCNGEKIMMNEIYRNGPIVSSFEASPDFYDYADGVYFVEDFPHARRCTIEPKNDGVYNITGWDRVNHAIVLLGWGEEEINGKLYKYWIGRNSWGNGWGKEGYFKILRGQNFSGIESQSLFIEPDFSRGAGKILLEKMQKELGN
row,SMILES,% Inhibition @ 10 uM
1,Cc1cccc(C)c1NC(=O)CN(c1ccccc1F)S(C)(=O)=O,0.108%
2,COc1cc(OC)cc(C(=O)N2CCN(c3ccc(F)cc3)CC2)c1,-3.25%
3,CC(C)(C)c1[nH]nc2c1[C@@H](c1ccccc1C(F)(F)F)C(C#N)=C(N)O2,2.69%
4,COc1ccc(OCC(=O)NCc2nc(-c3ccc(OC)cc3)no2)cc1,-2.99%
5,C=CCNc1nc(Cl)nc(N(CC)CC)n1,2%
6,Cc1cc(C)nc(NC(=O)COc2cccc(Cl)c2)c1,-4.39%
7,CN1CCCN(Cc2cc([N+](=O)[O-])ccc2Cl)CC1,3.01%
8,Cc1c(C(=O)N2CCN(Cc3ccccc3)CC2)sc2nc3n(c(=O)c12)CCCCC3,4.21%
9,COc1ccc2c(c1)CC/C(=C\c1ccsc1)C2=O,0.189%
10,O=C(NC1CCCCCCC1)c1ccccc1O,-9.57%
11,CCOC(=O)C1=C(N)OC2=C(C(=O)CC(C)(C)C2)C1c1ccc(Cl)cc1 (centres unmarked),1.4%
12,CCOC(=O)c1ccc(-n2c(N)c(C#N)c3nc4ccccc4nc32)cc1,-7.09%
13,CCC(=O)Nc1ccc2[nH]c(C(F)(F)F)nc2c1,0.986%
14,CC(=O)N(C)c1ccc(NC(=O)COc2ccccc2C)cc1,0.147%
15,C=CCSC1=C(C#N)C(c2sccc2C)CC(=O)N1 (centres unmarked),-1.08%
16,Nc1c(C(=O)CCC(=O)O)oc2ccc(Cl)cc12,3.34%
17,CCCOc1ccc(-c2nc3s/c(=C\c4ccco4)c(=O)n3n2)cc1,2.17%
18,O=C(c1ccc2c(c1)OCO2)N1CCN(c2ccc(F)cc2)CC1,1.64%
19,COc1ccc(C(C)n2c(C)c3c(C)nnc(C)c3c2C)cc1 (centres unmarked),1.91%
20,O=S(=O)(NCc1ccc2c(c1)OCO2)c1ccc(Cl)cc1,-3.37%
21,COc1ccc(NC(=O)CN(c2cc(Cl)cc(Cl)c2)S(=O)(=O)c2ccccc2)cc1OC,5.66%
22,Cc1ccccc1C(=O)Nc1nc(-c2ccccc2)ns1,-2.75%
23,Nc1nc(-c2ccc3ccccc3c2)cs1,-2.2%
24,COc1ccc(S(=O)(=O)NCc2ccc(C(=O)NCc3cccs3)cc2)cc1,-1.54%
25,O=C(c1cc(-c2ccc3c(c2)OCO3)nc2ccccc12)N1N=C(C(F)F)CC1(O)C(F)F (centres unmarked),-0.545%

row,SMILES,% Inhibition @ 10 uM
1,COc1ccc(-c2cc(C(=O)NC(Cc3c[nH]c4ccccc34)C(=O)O)c(C)o2)cc1OC (centres unmarked),-5.38%
2,Cc1ccc(-c2oc3ncnc(N)c3c2-c2ccc(C)cc2)cc1,-1.33%
3,Cc1oc2cc3oc(=O)c(CCC(=O)O)c(C)c3cc2c1-c1ccccc1,0.558%
4,Cc1ccccc1NC(=O)CCCC(=O)Nc1ccccc1C,-2.83%
5,COc1ccc(NC(=O)C2=C(C)NC(=O)NC2c2cccc(OC)c2)cc1 (centres unmarked),4.49%
6,COc1ccc2oc(=O)c(-c3nc(-c4ccccc4C)no3)cc2c1,1.66%
7,O=C(NCCc1ccccn1)c1nc(-c2ccc3c(c2)OCO3)no1,-0.0108%
8,CCOC(=O)c1c(C)n(-c2ccc(C)cc2C)c2ccc(O)cc12,1.39%
9,Cc1ccc(N(CC(=O)NCc2cccnc2)S(=O)(=O)c2ccc(F)cc2)cc1,-3.12%
10,CC(NC(=O)C1CCN(c2nnc(N3CCCC3=O)s2)CC1)C12CC3CC(CC(C3)C1)C2 (centres unmarked),2.27%
11,CCSc1ncc(Cl)c(C(=O)N(C)Cc2ccccc2)n1,2.19%
12,Cc1ccc(C)c(S(=O)(=O)Nc2ccc(C(=O)N3CC(C)CC(C)C3)cc2)c1 (centres unmarked),-1.06%
13,O=C(NCCc1ccc(Cl)cc1)c1ccc(-n2cnc3cccnc32)cc1,1.77%
14,COc1ccc(OC)c(CN2CCN(Cc3ccc(OC)cc3OC)CC2)c1,4.87%
15,O=S(=O)(NCc1ccccc1Cl)c1ccc2nc(O)ccc2c1,1.36%
16,Cc1ccc(N(C)C)cc1NC(=O)CCC(=O)O,-8.59%
17,Cc1ccc(S(=O)(=O)NCc2ccc(C(=O)NCCCN(Cc3ccccc3)C(C)C)cc2)cc1,3.74%
18,C=CCOc1ccc(C2C(C(=O)c3ccc(OCC)c(C)c3)=C(O)C(=O)N2CCCN(C)C)cc1 (centres unmarked),-0.178%
19,CCOc1ccc(-c2[nH]nc3c2C(c2ccc(OCC)c(OCC)c2)C(C#N)=C(N)O3)c(OCC)c1 (centres unmarked),15.1%
20,CCCCSc1c(C(=O)NC)ccc2c1C(=O)c1ccccc1C2=O,-4.35%
21,CCCn1c(-c2ccc(Br)cc2)cn2c3c(=O)n(C)c(=O)n(C)c3nc12,-3.45%
22,COc1cc(C2C(C#N)=C(C)N=C3CC(c4ccccc4)CC(O)=C32)cc(OC)c1OC (centres unmarked),15.8%
23,NCCNCC1COC2(CCCC2)O1 (centres unmarked),-9.49%
24,Cc1cccc(C2C(C#N)=C(N)OC3=C2C(=O)CC(c2ccccc2)C3)c1 (centres unmarked),7.59%
25,CS(=O)(=O)N(CCc1ccccc1)CC(=O)N1CCN(c2ccccc2)CC1,-7.17%
